# Results from the supplement of paper PMC8728848.
# The list shows a part of the results.
# B1: Pwp4 (Candida glabrata) (protein)
# chain: MGSSHHHHHHSSGLVPRGSHMASVGNPITVSNVCSFPKNWHRTAGFRALTARLGIGIQSDSYKELLNYPGTFQLTTQQSSTTKPNFQISGLVGNIYGLTIVPSYLLVELTGYFVPPVSGEYTFSLEGSDDAAIIFIANPSTFKCGHVEDWPTAYDNDVTVTESIHATRTIYMIEGVAYPIRIAYYNGLSLGKLQASFTDPEGVKRVDWNGYIWRYDSCDTCSYV
# Key:
# Test in all cases: glycan array binding signal (z-score within array); higher = stronger binding
# Conditions in all cases: glycan notation: IUPAC condensed, linker removed
# [1] = molecular target: Neu5Ac(a2-6)Gal(b1-4)GlcNAc(b1-2)Man(a1-3)[Neu5Ac(a2-3)Gal(b1-4)GlcNAc(b1-2)Man(a1-6)]Man(b1-4)GlcNAc(b1-4)GlcNAc
# In short: (§1)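 The binding signal is a Z-score computed within each array. Data were drawn from 3228 arrays in the Consortium for Functional Glycomics database, restricted to those with a known protein sequence. Scores were averaged over arrays of the same protein sequence at different concentrations or buffers, and over linkers, and negative values can be taken as non-binding.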
# [2] = molecular target: Neu5Ac(a2-6)Gal(b1-4)GlcNAc(b1-2)Man(a1-3)[Neu5Ac(a2-6)Gal(b1-4)GlcNAc(b1-2)Man(a1-6)]Man(b1-4)GlcNAc(b1-4)GlcNAc
# In short: as §1
# [3] = molecular target: Neu5Ac(a2-6)Gal(b1-4)GlcNAc(b1-2)Man(a1-3)[Neu5Ac(a2-6)Gal(b1-4)GlcNAc(b1-2)Man(a1-6)]Man(b1-4)GlcNAc(b1-4)[Fuc(a1-6)]GlcNAc
# In short: as §1
# [4] = molecular target: Neu5Ac(a2-6)Gal(b1-4)GlcNAc(b1-2)Man(a1-6)Man(b1-4)GlcNAc(b1-4)GlcNAc
# In short: as §1
# [5] = molecular target: Neu5Ac(a2-6)Gal(b1-4)GlcNAc(b1-2)Man(a1-6)[Gal(b1-4)GlcNAc(b1-2)Man(a1-3)]Man(b1-4)GlcNAc(b1-4)GlcNAc
# In short: as §1
# [6] = molecular target: Neu5Ac(a2-6)Gal(b1-4)GlcNAc(b1-2)Man(a1-6)[GlcNAc(b1-2)Man(a1-3)]Man(b1-4)GlcNAc(b1-4)GlcNAc
# In short: as §1
# [7] = molecular target: Neu5Ac(a2-6)Gal(b1-4)GlcNAc(b1-2)Man(a1-6)[Man(a1-3)]Man(b1-4)GlcNAc(b1-4)GlcNAc
# In short: as §1
# [8] = molecular target: Neu5Ac(a2-6)Gal(b1-4)GlcNAc(b1-2)[Neu5Ac(a2-6)Gal(b1-4)GlcNAc(b1-4)]Man(a1-3)[GlcNAc(b1-4)][Neu5Ac(a2-6)Gal(b1-4)GlcNAc(b1-2)[Neu5Ac(a2-6)Gal(b1-4)GlcNAc(b1-6)]Man(a1-6)]Man(b1-4)GlcNAc(b1-4)GlcNAc
# In short: as §1
# [9] = molecular target: Neu5Ac(a2-6)Gal(b1-4)GlcNAc(b1-2)[Neu5Ac(a2-6)Gal(b1-4)GlcNAc(b1-4)]Man(a1-3)[GlcNAc(b1-4)][Neu5Ac(a2-6)Gal(b1-4)GlcNAc(b1-4)Man(a1-6)]Man(b1-4)GlcNAc(b1-4)GlcNAc
# In short: as §1
# [10] = molecular target: Neu5Ac(a2-6)Gal(b1-4)GlcNAc(b1-2)[Neu5Ac(a2-6)Gal(b1-4)GlcNAc(b1-6)]Man(a1-6)[Neu5Ac(a2-6)Gal(b1-4)GlcNAc(b1-2)Man(a1-3)][GlcNAc(b1-4)]Man(b1-4)GlcNAc(b1-4)GlcNAc
# In short: as §1
# [11] = molecular target: Neu5Ac(a2-6)Gal(b1-4)GlcNAc(b1-3)Gal(b1-3)GlcNAc
# In short: as §1
# [12] = molecular target: Neu5Ac(a2-6)Gal(b1-4)GlcNAc(b1-3)Gal(b1-4)GlcNAc
# In short: as §1
# [13] = molecular target: Neu5Ac(a2-6)Gal(b1-4)GlcNAc(b1-3)Gal(b1-4)GlcNAc(b1-2)Man(a1-3)[Neu5Ac(a2-6)Gal(b1-4)GlcNAc(b1-3)Gal(b1-4)GlcNAc(b1-2)Man(a1-6)]GalNAc
# In short: as §1
# [14] = molecular target: Neu5Ac(a2-6)Gal(b1-4)GlcNAc(b1-3)Gal(b1-4)GlcNAc(b1-3)Gal(b1-4)GlcNAc
# In short: as §1
# [15] = molecular target: Neu5Ac(a2-6)Gal(b1-4)GlcNAc(b1-3)Gal(b1-4)GlcNAc(b1-3)Gal(b1-4)GlcNAc(b1-2)Man(a1-3)[Neu5Ac(a2-6)Gal(b1-4)GlcNAc(b1-3)Gal(b1-4)GlcNAc(b1-3)Gal(b1-4)GlcNAc(b1-2)Man(a1-6)]GalNAc
# In short: as §1
# [16] = molecular target: Neu5Ac(a2-6)Gal(b1-4)GlcNAc(b1-3)Gal(b1-4)GlcNAc(b1-3)GalNAc
# In short: as §1
# [17] = molecular target: Neu5Ac(a2-6)Gal(b1-4)GlcNAc(b1-3)Gal(b1-4)GlcNAc(b1-3)[Neu5Ac(a2-6)Gal(b1-4)GlcNAc(b1-3)Gal(b1-4)GlcNAc(b1-6)]GalNAc
# In short: as §1
# [18] = molecular target: Neu5Ac(a2-6)Gal(b1-4)GlcNAc(b1-3)Gal(b1-4)GlcNAc(b1-6)[Gal(b1-3)]GalNAc
# In short: as §1
# [19] = molecular target: Neu5Ac(a2-6)Gal(b1-4)GlcNAc(b1-3)Gal(b1-4)[Fuc(a1-3)]GlcNAc(b1-3)Gal(b1-4)[Fuc(a1-3)]GlcNAc
# In short: as §1
# [20] = molecular target: Neu5Ac(a2-6)Gal(b1-4)GlcNAc(b1-3)GalNAc
# In short: as §1
# [21] = molecular target: Neu5Ac(a2-6)Gal(b1-4)GlcNAc(b1-3)[Neu5Ac(a2-6)Gal(b1-4)GlcNAc(b1-6)]GalNAc
# In short: as §1
# [22] = molecular target: Neu5Ac(a2-6)Gal(b1-4)GlcNAc(b1-6)GalNAc
# In short: as §1
# [23] = molecular target: Neu5Ac(a2-6)Gal(b1-4)GlcNAc(b1-6)[Gal(b1-3)GlcNAc(b1-3)]Gal(b1-4)Glc
# In short: as §1
# [24] = molecular target: Neu5Ac(a2-6)Gal(b1-4)GlcNAc(b1-6)[Gal(b1-3)]GalNAc
# In short: as §1
# [25] = molecular target: Neu5Ac(a2-6)Gal(b1-4)GlcNAc6S
# In short: as §1
# [26] = molecular target: Neu5Ac(a2-6)GalNAc
# In short: as §1
# [27] = molecular target: Neu5Ac(a2-6)GalNAc(b1-4)GlcNAc
# In short: as §1
# [28] = molecular target: Neu5Ac(a2-6)GalNAc(b1-4)GlcNAc6S
# In short: as §1
# [29] = molecular target: Neu5Ac(a2-6)GlcNAc(b1-4)GlcNAc
# In short: as §1
# [30] = molecular target: Neu5Ac(a2-6)GlcNAc(b1-4)GlcNAc(b1-4)GlcNAc
# In short: as §1
binder,measurement,setting,value
B1,glycan array binding signal (z-score),[1],-0.29
same,glycan array binding signal (z-score),[2],-0.332
same,glycan array binding signal (z-score),[3],-0.055
same,glycan array binding signal (z-score),[4],0.851
same,glycan array binding signal (z-score),[5],-0.186
same,glycan array binding signal (z-score),[6],-0.493
same,glycan array binding signal (z-score),[7],0.46
same,glycan array binding signal (z-score),[8],0.648
same,glycan array binding signal (z-score),[9],-0.777
same,glycan array binding signal (z-score),[10],-0.104
same,glycan array binding signal (z-score),[11],-0.33
same,glycan array binding signal (z-score),[12],-0.127
same,glycan array binding signal (z-score),[13],0.057
same,glycan array binding signal (z-score),[14],0.151
same,glycan array binding signal (z-score),[15],0.344
same,glycan array binding signal (z-score),[16],-0.514
same,glycan array binding signal (z-score),[17],-0.244
same,glycan array binding signal (z-score),[18],0.427
same,glycan array binding signal (z-score),[19],-0.388
same,glycan array binding signal (z-score),[20],-0.535
same,glycan array binding signal (z-score),[21],-0.631
same,glycan array binding signal (z-score),[22],-0.354
same,glycan array binding signal (z-score),[23],-0.561
same,glycan array binding signal (z-score),[24],-0.462
same,glycan array binding signal (z-score),[25],-0.336
same,glycan array binding signal (z-score),[26],-0.284
same,glycan array binding signal (z-score),[27],0.002
same,glycan array binding signal (z-score),[28],-0.494
same,glycan array binding signal (z-score),[29],1.6
same,glycan array binding signal (z-score),[30],-0.139
